# Source: PubChem BioAssay (NCATS)
# The inconclusive results got no clear call from the source; some entries with a clear call stand among them for comparison. A potency beside an inconclusive call is a rough fit, not a confirmed value. Active and inactive are the calls of the source. The call rests on the fitted dose curve; in most records, active means well fitted cell-killing curve with a large enough effect; inconclusive means small, poorly fitted or top-dose-only effect, or effect the other way; inactive means no such curve, though single readings can be large or run the other way.
# Legend:
# [1] = Viability qHTS for spleen associated tyrosine kinase inhibitor (SYKi) naive MV4-11 cells (AID 1963823); further: nearly all actives have a fitted effect of over 40% in size
# Method in brief: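 In this viability screen, compounds acted on SYK inhibitor naive MV4-11 cells for three days (72 hr, 37 C). Remaining viable cells were measured by CellTiter-Glo luminescence following a 10 min room-temperature development.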
# [2] = Viability qHTS for spleen associated tyrosine kinase inhibitor (SYKi) drug resistant MV4-11 cells (AID 1963824); further: nearly all actives have a fitted effect of over 35% in size
# Method in brief: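 SYK inhibitor-resistant MV4-11 AML cells, 500 per well, added to predispensed compounds and incubated 72 hr at 37 C, 5% CO2. Viability measured by CellTiter-Glo luminescence after 10 min at room temperature.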
# Potency means the concentration at half of the fitted maximal effect; tags describe the fitted curve by direction and shape.
SMILES,Potency [1],Potency [2]
Nc1ccc(N)cc1,"inconclusive: 9440 nM [cytotoxic, partial curve, poor fit]","inconclusive: 15000 nM [cytotoxic, partial curve]"
CC(C)(C)c1cc(C(C)(C)C)c2c(c1)C(O)(C(F)(F)F)C(=O)O2 (stereo unspecified),inactive,inactive
COCC1OC(=O)c2coc3c2C1(C)C1=C(C3=O)C2CCC(=O)C2(C)CC1O (stereo unspecified),inactive,inactive
CCCCCCC(=O)CCCCCC/C=C/C[C@@H](O)[C@H](O)[C@@](N)(CO)C(=O)O,"inconclusive: 41.1 nM [cytotoxic, full curve, poor fit]",inactive
CO[C@@H]1[C@H](O)[C@@H](O[C@@H]2C[C@H]3CC[C@@H]4C(CC[C@]5(C)[C@@H](C6=CC(=O)OC6)CC[C@]45O)[C@@]3(C)[C@H](O)C2)O[C@H](C)[C@@H]1O (stereo partly specified),active: 63.2 nM,active: 28.2 nM
COC(=O)C1(C)CCC(O)C2(C)c3c(O)cc(C(C)C)cc3C(O)C(OC(C)=O)C12 (stereo unspecified),inactive,inactive
COc1cc(O)c2c(c1)/C=C/C[C@@H](O)[C@@H](O)C(=O)CCC[C@H](C)OC2=O,"inconclusive: 7180 nM [cytotoxic, partial curve]","inconclusive: 12800 nM [cytotoxic, partial curve]"
CN(Cc1cccc(-c2ccncc2)c1)C(=O)Oc1ccc(-c2ccc(C(N)=O)cc2)cc1,"inconclusive: 2060 nM [cytotoxic, full curve]","inconclusive: 1840 nM [cytotoxic, full curve, poor fit]"
